# Experimental data as given in the BET-seq Pho4 binding data (Le et al. 2018).
# This is one part of the list. The energies were worked out here from pooled read counts, against the library average; single values are noisy.
# Target: T1, Pho4 (S. cerevisiae) (UniProt P07270)
# T1 sequence: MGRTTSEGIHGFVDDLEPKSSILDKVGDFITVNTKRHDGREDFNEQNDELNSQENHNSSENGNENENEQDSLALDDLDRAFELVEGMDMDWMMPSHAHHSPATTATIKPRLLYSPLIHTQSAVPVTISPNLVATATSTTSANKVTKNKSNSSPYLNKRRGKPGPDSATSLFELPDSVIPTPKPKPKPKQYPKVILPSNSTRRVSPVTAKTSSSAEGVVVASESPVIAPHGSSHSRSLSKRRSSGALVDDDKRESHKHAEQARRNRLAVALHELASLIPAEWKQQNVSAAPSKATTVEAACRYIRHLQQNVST
# Assay: relative binding free energy (BET-seq); higher = weaker binding
# Settings: reference: library average
row,Sequence,relative binding free energy
1,GTAGGCACGTGAAGTT,0.23 kcal/mol
2,ATGCACACGTGTGGAG,0.06 kcal/mol
3,TCGGTCACGTGTGACG,0.3 kcal/mol
4,TGGAGCACGTGTTATG,-0.11 kcal/mol
5,GTTATCACGTGAATGG,0.37 kcal/mol
6,TCATACACGTGTTAGT,-0.01 kcal/mol
7,GTTAGCACGTGTGTTA,0.06 kcal/mol
8,ATAGACACGTGTGTCT,0.07 kcal/mol
9,GTTTTCACGTGGGCTA,0.19 kcal/mol
10,GGGTTCACGTGATTGC,0.45 kcal/mol
11,TAGGTCACGTGGGAGA,0.04 kcal/mol
12,TGATACACGTGGGCGT,-0.14 kcal/mol
13,GTGGTCACGTGGGAGT,0.07 kcal/mol
14,TTCAGCACGTGATGTA,0.08 kcal/mol
15,TAATACACGTGTTGAT,0.13 kcal/mol
16,GCTATCACGTGTGGTA,0.29 kcal/mol
17,CAGGGCACGTGCGCGT,-0.26 kcal/mol
18,GGTGCCACGTGTTACT,0.12 kcal/mol
19,AGGGGCACGTGACGGC,-0.18 kcal/mol
20,AAGGGCACGTGGTAAT,-0.27 kcal/mol
21,GGTTCCACGTGGGAGT,-0.01 kcal/mol
22,CGTAGCACGTGCGTGG,-0.16 kcal/mol
23,GTCTTCACGTGTCTGT,0.36 kcal/mol
24,CGGGGCACGTGGTTTC,-0.21 kcal/mol
25,TTTTACACGTGGTAGC,0.19 kcal/mol

row,Sequence,relative binding free energy
1,TCTGCCACGTGTTGGG,-0.06 kcal/mol
2,GTGGGCACGTGCAAGT,-0.1 kcal/mol
3,AATGGCACGTGACGGC,0.21 kcal/mol
4,GTCGTCACGTGTTGTT,0.19 kcal/mol
5,CGGGGCACGTGTCTGT,-0.05 kcal/mol
6,GTTTTCACGTGTGAGA,0.36 kcal/mol
7,CTTGTCACGTGAGTGG,0.22 kcal/mol
8,ATTTACACGTGCGTGT,-0.03 kcal/mol
9,TGTGACACGTGACAGG,0.16 kcal/mol
10,GAGGGCACGTGTCTTT,-0.04 kcal/mol
11,AATGTCACGTGCGGGG,-0.06 kcal/mol
12,ATGTACACGTGTACGG,0.04 kcal/mol
13,TTACGCACGTGGGGTA,-0.37 kcal/mol
14,GGCGGCACGTGATAAG,0.23 kcal/mol
15,CAAGGCACGTGTAGGT,-0.05 kcal/mol
16,TTGTCCACGTGGGGTA,-0.18 kcal/mol
17,CGGAACACGTGGAGTT,0.23 kcal/mol
18,AAAGTCACGTGAGTGG,0.38 kcal/mol
19,AATCGCACGTGAGTGA,0.26 kcal/mol
20,CGTTGCACGTGGGTTC,-0.18 kcal/mol
21,GTCTGCACGTGTTTGG,0.18 kcal/mol
22,GCTGTCACGTGTGAGG,0.21 kcal/mol
23,AGGTACACGTGTGTGG,0.13 kcal/mol
24,AATGACACGTGGGGTT,-0.14 kcal/mol
25,AAGTCCACGTGAGGAG,0.38 kcal/mol

row,Sequence,relative binding free energy
1,AGTACCACGTGGTGTA,-0.23 kcal/mol
2,GTTACCACGTGGGGCT,-0.13 kcal/mol
3,GCGGCCACGTGGGGGC,-0.2 kcal/mol
4,GGGGTCACGTGATGTA,0.19 kcal/mol
5,AAGTGCACGTGATAAG,0.08 kcal/mol
6,GTAGTCACGTGGTGTA,0.06 kcal/mol
7,TTGATCACGTGCCGTT,0.12 kcal/mol
8,TCGTACACGTGTTTGT,0.04 kcal/mol
9,GTAGGCACGTGCCTGG,-0.18 kcal/mol
10,GCGTTCACGTGGTGCG,0.29 kcal/mol
11,TCTTGCACGTGGAGGG,-0.04 kcal/mol
12,TTGGGCACGTGTAGTC,0.02 kcal/mol
13,TAATTCACGTGGGAGC,0.2 kcal/mol
14,ATGGGCACGTGCTGCT,-0.25 kcal/mol
15,TGAATCACGTGTGGCG,0.23 kcal/mol
16,GTGGGCACGTGATAGA,0.13 kcal/mol
17,TGTGCCACGTGCTTGG,-0.22 kcal/mol
18,TTAGCCACGTGAGTTT,0.16 kcal/mol
19,GTAGTCACGTGTATCT,0 kcal/mol
20,CTAATCACGTGGGGTT,0.04 kcal/mol
21,ATGGACACGTGTAGCG,-0.01 kcal/mol
22,AGGTCCACGTGCAGGT,-0.14 kcal/mol
23,GATTGCACGTGTAGAG,0.04 kcal/mol
24,AAAAGCACGTGGGATT,-0.04 kcal/mol
25,CCGTGCACGTGGGTGG,-0.15 kcal/mol

row,Sequence,relative binding free energy
1,AGGAGCACGTGGGTTG,-0.21 kcal/mol
2,AGTTTCACGTGGTGAA,0.27 kcal/mol
3,TGTCTCACGTGTGCTG,0.11 kcal/mol
4,TAAGGCACGTGGATCG,-0.17 kcal/mol
5,GATGACACGTGTGTGG,0.22 kcal/mol
6,GACGGCACGTGTGAAG,0.15 kcal/mol
7,GGCTGCACGTGTAGGT,0.06 kcal/mol
8,TTTGTCACGTGTGTTT,0.21 kcal/mol
9,TGCAGCACGTGGAGGC,-0.16 kcal/mol
10,GTTTTCACGTGCTTTA,0.3 kcal/mol
11,ACATTCACGTGCGGGG,0.19 kcal/mol
12,GGATACACGTGGTCGG,0.04 kcal/mol
13,AATATCACGTGGATAG,0.32 kcal/mol
14,TGTGTCACGTGTGCAG,0.03 kcal/mol
15,TAAGGCACGTGGTCGG,-0.21 kcal/mol
16,GGGCCCACGTGTGGGA,-0.01 kcal/mol
17,TGAGGCACGTGTATGT,-0.12 kcal/mol
18,TGCTTCACGTGGGATT,0.08 kcal/mol
19,TTTATCACGTGAAATG,0.51 kcal/mol
20,TGCAGCACGTGGGCTG,-0.27 kcal/mol
21,TGTTCCACGTGCTAGG,-0.1 kcal/mol
22,TATAACACGTGTGGTG,-0.09 kcal/mol
23,GTAGGCACGTGCGCGT,-0.17 kcal/mol
24,TTTGTCACGTGAGATG,0.25 kcal/mol
25,TTCATCACGTGGGTGA,0.03 kcal/mol

row,Sequence,relative binding free energy
1,GATTTCACGTGTGATT,0.34 kcal/mol
2,TGGTGCACGTGCTGAG,-0.12 kcal/mol
3,GATGGCACGTGGAGGC,-0.18 kcal/mol
4,GGTGACACGTGAATAG,0.38 kcal/mol
5,TCTTTCACGTGGTGAA,0.2 kcal/mol
6,CTTGTCACGTGAGGTA,0.1 kcal/mol
7,TCGGTCACGTGCTTGA,0.11 kcal/mol
8,AGGGGCACGTGAGTCT,0.24 kcal/mol
9,TTGGGCACGTGGGAGA,-0.23 kcal/mol
10,TGCGTCACGTGAAGTG,0.1 kcal/mol
11,ATGAACACGTGAGGTT,0.27 kcal/mol
12,TTTAGCACGTGAGCTG,0.24 kcal/mol
13,TGAGTCACGTGGCGCG,-0.07 kcal/mol
14,TAGTGCACGTGACTTT,0.13 kcal/mol
15,AACTGCACGTGGGGTG,-0.36 kcal/mol
16,TCGGTCACGTGTTGGC,0.07 kcal/mol
17,ATTGTCACGTGCAGAT,0.07 kcal/mol
18,TGGTGCACGTGCGTTG,-0.08 kcal/mol
19,TAGTCCACGTGGGGCG,-0.04 kcal/mol
20,TTTGACACGTGCTTTA,-0.11 kcal/mol
21,TGGTACACGTGGTACG,0.03 kcal/mol
22,GTTCACACGTGGATGT,0.14 kcal/mol
23,TTCGACACGTGGAAGG,0.17 kcal/mol
24,TCATGCACGTGGTGTA,-0.13 kcal/mol
25,ATGAGCACGTGTGGTG,-0.12 kcal/mol

row,Sequence,relative binding free energy
1,TCTGGCACGTGGTGGA,-0.07 kcal/mol
2,CAGGGCACGTGTAGAG,0.04 kcal/mol
3,TACGTCACGTGTCGTT,0.02 kcal/mol
4,TTCGGCACGTGATTCG,0.11 kcal/mol
5,CGGGACACGTGAGGCG,0.13 kcal/mol
6,TGTTGCACGTGTCAAT,-0.03 kcal/mol
7,ATGAGCACGTGGTCTT,-0.21 kcal/mol
8,ATTAGCACGTGAACGT,0.1 kcal/mol
9,GGGAGCACGTGTGCGG,-0.03 kcal/mol
10,GTCGACACGTGTGGGG,0.15 kcal/mol
11,TTGAGCACGTGCATGG,-0.08 kcal/mol
12,GAAGACACGTGGATGG,0.18 kcal/mol
13,GTGATCACGTGTATTG,0.07 kcal/mol
14,GGGGACACGTGGGGCT,-0.01 kcal/mol
15,GGGCGCACGTGGCGAT,-0.03 kcal/mol
16,GCTGACACGTGGTGTT,-0.11 kcal/mol
17,ATGTGCACGTGTTCAG,-0.04 kcal/mol
18,AGCGGCACGTGCGGGG,-0.25 kcal/mol
19,GGCCGCACGTGGGGAG,-0.27 kcal/mol
20,GTATCCACGTGTAGTT,0.17 kcal/mol
21,TATAACACGTGAGTGA,0.24 kcal/mol
